Results published in PubChem BioAssay (NCATS).
Where “and” joins values, the source holds several entries; their conditions need not be identical. Equal values may be shown once. The inconclusive results got no clear call from the source; some entries with a clear call stand among them for comparison. For some of these results: No potency is given beside an inconclusive call; the fits are too rough. Calls of active or inactive are those of the source. Unless noted, calls follow the shape of the dose curve; as a rule, active = well fitted curve in the direction sought with a large enough effect; inconclusive = small, poorly fitted or top-dose-only effect, or another doubt; inactive = no such curve, though single readings can be large; an effect the other way counts as inactive or inconclusive.

Assays:
[1] = Viability qHTS for spleen associated tyrosine kinase inhibitor (SYKi) drug resistant MV4-11 cells (AID 1963824); also: nearly all actives have a fitted effect of over 35% in size
How it was run: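 CellTiter-Glo luminescence, read 10 min after reagent addition, reports viability after a 72 hr compound exposure. Cells are an MV4-11 line made resistant to SYK inhibition, seeded at 500 per well onto compound-containing plates.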

[2] = Quantitative highthroughput screen to assess conditional lethalithy of NOMO1 cells grown in Human Plasma-Like Medium with dialyzed fetal bovine serum (HPLM+ds) (AID 1963878); also: nearly all actives have a fitted effect of over 35% in size
How it was run: (§1)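 Each medium arm—HPLM with 10% dialyzed FBS, or RPMI1640 with 5 mM glucose and 10% untreated or dialyzed FBS—was screened against an 11-point, 3-fold compound titration for 48 h at 37 °C, with CellTiter-Glo luminescence as endpoint.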

[3] = Quantitative highthroughput screen to assess conditional lethalithy of SEM cells grown in RPMI1640 with dialyzed fetal bovine serum (RPMI+ds) (AID 1963884); also: nearly all actives have a fitted effect of over 35% in size
How it was run: as §1

[4] = Cellular viability qHTS for adrenocortical cancer (ACC) cell line SW-13 (AID 1963989); conditions: SW-13 ACC cells viability, CellTiter-Glo, 48 h; activity (max response): stronger effect = lower value; also: nearly all actives have a fitted effect of over 65% in size
How it was run: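 Luminescent ATP read-out (CellTiter-Glo, 20 min at room temperature) measured metabolically competent SW-13 cells after 48 h compound treatment. Final concentrations spanned up to 46 uM; bortezomib served as positive control.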

[5] = Quantitative highthroughput screen to assess conditional lethalithy of NOMO1 cells grown in RPMI1640 with untreated serum (RPMI+s) (AID 1963876); also: nearly all actives have a fitted effect of over 35% in size
How it was run: as §1

[6] = Quantitative highthroughput screen to assess conditional lethalithy of NOMO1 cells grown in RPMI1640 with dialyzed fetal bovine serum (RPMI+ds) (AID 1963877); also: nearly all actives have a fitted effect of over 30% in size
How it was run: as §1

[7] = Quantitative highthroughput screen to assess conditional lethalithy of P12 Ichikawa cells grown in RPMI1640 with dialyzed fetal bovine serum (RPMI+ds) (AID 1963880); conditions: Potency: P12-Ichikawa viability; also: nearly all actives have a fitted effect of over 35% in size
How it was run: as §1

[8] = Quantitative highthroughput screen to assess conditional lethalithy of SEM cells grown in RPMI1640 with unreated serum (RPMI+s) (AID 1963883); also: nearly all actives have a fitted effect of over 35% in size
How it was run: as §1

[9] = Cellular viability qHTS for adrenocortical cancer (ACC) cell line NCI-H295R (AID 1963990); conditions: CellTiter-Glo ATP luminescence, 48 h; series mostly up to 46.1 µM; also: nearly all actives have a fitted effect of over 60% in size
How it was run: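 IC50 and maximal efficacy derive from four-parameter logistic modelling of titration curves, with reads scaled between DMSO-only wells (0%) and doxorubicin hydrochloride (100% inhibition). Compounds spanned up to 46 uM over 48 h.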

[10] = Quantitative highthroughput screen to assess conditional lethalithy of SEM cells grown in Human Plasma-Like Medium with dialyzed fetal bovine serum (HPLM+ds) (AID 1963882); also: nearly all actives have a fitted effect of over 35% in size
How it was run: as §1

[11] = Quantitative highthroughput screen to assess conditional lethalithy of P12 Ichikawa cells grown in Human Plasma-Like Medium with dialyzed fetal bovine serum (HPLM+ds) (AID 1963879); conditions: Potency: viability; also: nearly all actives have a fitted effect of over 35% in size
How it was run: as §1

[12] = molecular target: Papain (Carica papaya) (UniProt P00784); experiment: Selectivity profile for inhibitors of NSP2Pro chikungunya virus (CHIKV): Papain Counterscreen (AID 1964104; calls by dose curve)
Sequence of UniProt P00784 (P00784 whole entry, looked up): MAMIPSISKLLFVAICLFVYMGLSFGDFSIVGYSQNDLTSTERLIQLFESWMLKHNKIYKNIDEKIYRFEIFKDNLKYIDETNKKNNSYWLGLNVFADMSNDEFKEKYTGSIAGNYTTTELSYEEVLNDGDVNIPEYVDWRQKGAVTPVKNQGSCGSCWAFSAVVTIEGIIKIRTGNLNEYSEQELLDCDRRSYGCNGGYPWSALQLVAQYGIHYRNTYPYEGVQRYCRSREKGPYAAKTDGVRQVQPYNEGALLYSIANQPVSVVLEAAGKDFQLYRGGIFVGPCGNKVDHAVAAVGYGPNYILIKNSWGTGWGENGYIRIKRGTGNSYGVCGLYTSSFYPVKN
Potency is read from the fitted curve at half-maximal effect; tags tell the direction and shape of the fitted curve.

## CCC1(c2ccc(N)cc2)CCC(=O)NC1=O (stereo unspecified)
[1]
  Potency: inactive
[2]
  Potency: inactive
[3]
  Potency: inactive

## C=C1C(=O)O[C@@H]2[C@H]3C(=C)[C@@H](O)C[C@H]3C(=C)C[C@@H](O)[C@@H]12
[1]
  Potency: active: 3.66 µM

## CC(C)(NC(=O)O[C@@H]1CN2CCC1CC2)c1csc(-c2ccc(F)cc2)n1
[1]
  Potency: inconclusive [cytotoxic, partial curve]
[4]
  Potency: inconclusive [cytotoxic, single point]

## CN1[C@H]2CC(O)C[C@H]1[C@H]1O[C@H]12 (stereo partly specified)
[1]
  Potency: inactive
[5]
  Potency: inconclusive [cytotoxic, single point]
[6]
  Potency: inconclusive [cytotoxic, single point]
[2]
  Potency: inconclusive [cytotoxic, single point]
[7]
  Potency: inconclusive [cytotoxic, single point]
[8]
  Potency: inconclusive [cytotoxic, single point]

## CC[C@@]1(O)C(=O)OCc2c1cc1n(c2=O)Cc2cc3ccccc3nc2-1
[1]
  Potency: active: 0.0235 µM
[2]
  Potency: active: 0.0662 µM
[8]
  Potency: active: 0.0235 µM
[3]
  Potency: active: 0.0264 µM
[4]
  Potency: active: 0.126 µM
[9]
  Potency: inconclusive [cytotoxic, full curve]

## O=C(CBr)Nc1ccc(Cl)cc1C(=O)c1ccccc1F
[1]
  Potency: inconclusive [cytotoxic, partial curve, poor fit]
[9]
  Potency: inconclusive [cytotoxic, full curve]

## O=C(O)C(Cl)Cl
[1]
  Potency: inactive
[9]
  Potency: inconclusive [cytotoxic, full curve, poor fit]

## CCNC(=O)C[C@@H]1N=C(c2ccc(Cl)cc2)c2cc(OC)ccc2-n2c(C)nnc21
[1]
  Potency: active: 461 nM and active: 417 nM
[10]
  Potency: active: 0.935 µM

## Clc1ccc(C(OCCN2CCCCC2)c2ccccc2)cc1 (stereo unspecified)
[1]
  Potency: inconclusive [cytotoxic, single point]
[4]
  Potency: inconclusive [cytotoxic, single point]
[9]
  Potency: inconclusive [cytotoxic, single point]

## O=C1c2ccccc2C(=O)C1C(=O)C(c1ccccc1)c1ccccc1
[1]
  Potency: inconclusive [cytotoxic, single point]
[4]
  Potency: inconclusive [cytotoxic, single point]

## CC(=Cc1csc(C)n1)[C@@H]1C[C@H]2O[C@@H]2CCC[C@H](C)[C@@H](O)[C@@H](C)C(=O)C(C)(C)[C@@H](O)CC(=O)O1
[2]
  Potency: inactive

## CC[C@H]1C=CC=CC[C@@H](C)[C@H](O)[C@@](C)(O)C(=O)[C@@H](C)[C@H](O)[C@@H](C)C(=O)[C@@H](C)[C@H](O)[C@@H](C)C=CC(=O)O[C@@H]2[C@@H](C)[C@H](CC1)O[C@]1(CC[C@H](C)[C@H](C[C@@H](C)O)O1)[C@H]2C
[5]
  Potency: inconclusive [cytotoxic, full curve]
[8]
  Potency: inconclusive [cytotoxic, full curve]

## C[C@@H]1[C@H](O)[C@@H](C)C=CC=CCCC=CC=CC=CC=C[C@H](O[C@H]2O[C@@H](C)[C@H](O)[C@@H](N)[C@@H]2O)CC2O[C@](O)(C[C@@H](O)[C@H](O)CC[C@@H](O)C[C@@H](O)C[C@@H](O)CC(=O)O[C@H]1C)C[C@H](O)[C@H]2C(=O)O
[6]
  Potency: inactive
[11]
  Potency: inactive

## Cc1c(N)nc([C@H](CC(N)=O)NC[C@@H](N)C(N)=O)nc1C(=O)N[C@H](C(=O)N[C@@H](C)[C@H](O)[C@@H](C)C(=O)N[C@@H](C(=O)NCCc1nc(-c2nc(C(=O)NCCC[S+](C)C)cs2)cs1)[C@@H](C)O)C(O[C@H]1O[C@H](CO)[C@H](O)[C@@H](O)[C@@H]1O[C@H]1O[C@H](CO)[C@@H](O)[C@H](OC(N)=O)[C@H]1O)c1cnc[nH]1 (stereo partly specified)
[6]
  Potency: active: 2.64 µM
[2]
  Potency: active: 0.935 µM
[11]
  Potency: inconclusive [cytotoxic, full curve]
[10]
  Potency: inconclusive [cytotoxic, full curve]

## C[C@@H]1O[C@@H](O[C@@H]2C=C3CC[C@@H]4[C@@H](CC[C@]5(C)[C@H](c6ccc(=O)oc6)CC[C@@]45O)[C@@]3(C)CC2)[C@H](O)[C@H](O)[C@H]1O
[2]
  Potency: active: 0.0332 µM
[11]
  Potency: active: 0.0209 µM

## Clc1ccc(N2C[C@H]3CC[C@@H](C2)N3)nn1
[1]
  Potency: inactive
[12]
  Potency: inconclusive [inhibitor, partial curve]

## CO[C@H]1CCC(O[C@H]2C[C@H]([C@]3(C)CC[C@]4(C[C@H](O)[C@@H](C)[C@@H]([C@@H](C)C=C(C)C(=O)[C@H](C)C[C@H](C)C(=O)O)O4)O3)O[C@]3(O[C@@H]([C@H]4O[C@@](O)(CO)[C@H](C)C[C@H]4C)C[C@H]3C)[C@H]2C)O[C@H]1C (stereo partly specified)
[6]
  Potency: inconclusive [cytotoxic, partial curve, poor fit]
[2]
  Potency: inconclusive [cytotoxic, partial curve]
[11]
  Potency: active: 3.72 µM
[7]
  Potency: inconclusive [cytotoxic, full curve]
